This is one part of the list. Values were computed here from the reads of four pooled replicates and scatter widely.
These sequences were tested against T1, Pho4 (S. cerevisiae) (UniProt P07270) (assay: relative binding free energy (BET-seq); higher = weaker binding). Details: reference: library average.
T1 sequence: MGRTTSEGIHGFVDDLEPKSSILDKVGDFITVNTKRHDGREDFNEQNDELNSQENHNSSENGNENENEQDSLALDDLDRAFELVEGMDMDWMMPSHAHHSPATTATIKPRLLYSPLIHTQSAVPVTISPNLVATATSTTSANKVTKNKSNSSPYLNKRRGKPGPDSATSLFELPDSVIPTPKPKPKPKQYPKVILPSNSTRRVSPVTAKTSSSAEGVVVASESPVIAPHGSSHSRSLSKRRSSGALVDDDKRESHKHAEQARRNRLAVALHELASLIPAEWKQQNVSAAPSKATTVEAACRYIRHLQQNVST

Sequence	relative binding free energy
GGTGTCACGTGTGCAT	0.2 kcal/mol
TGCTACACGTGGTGAA	0.09 kcal/mol
TATGGCACGTGTTCAG	-0.08 kcal/mol
GTGGGCACGTGGGCAG	-0.19 kcal/mol
CGTATCACGTGGGGGA	0.06 kcal/mol
TTATTCACGTGGATTG	0.22 kcal/mol
AATGTCACGTGGGTAC	-0.07 kcal/mol
TGTTTCACGTGCTTCT	0.21 kcal/mol
CGTACCACGTGTGGGG	-0.17 kcal/mol
AAGAACACGTGTGAGG	0.21 kcal/mol
ATGTACACGTGAGAGA	0.39 kcal/mol
GTTAACACGTGTGTAG	0.12 kcal/mol
AGAGGCACGTGAGAGA	0.14 kcal/mol
TGGATCACGTGCATGG	0.1 kcal/mol
ATGGACACGTGGGGAG	-0.12 kcal/mol
GGATTCACGTGGCCGG	0.24 kcal/mol
AAGGTCACGTGAGTGG	0.3 kcal/mol
TGGGCCACGTGTATAT	-0.01 kcal/mol
TTATACACGTGGTATA	-0.09 kcal/mol
AAGGTCACGTGTTTTC	0.03 kcal/mol
TGTCTCACGTGTTTGT	0.28 kcal/mol
AGTTGCACGTGTCGAG	0.03 kcal/mol
GAATACACGTGCTGGT	0.2 kcal/mol

Sequence	relative binding free energy
GTAGCCACGTGGGTTT	-0.16 kcal/mol
ACTGACACGTGTTGTG	0.11 kcal/mol
CTGGTCACGTGGCCGG	0 kcal/mol
GGTAACACGTGCGTTG	0.05 kcal/mol
ATTGTCACGTGAATAG	0.31 kcal/mol
TCGGTCACGTGGTGCT	-0.22 kcal/mol
CGGGACACGTGAGTTG	0.18 kcal/mol
TCTTACACGTGGTAAG	0.16 kcal/mol
GGCGTCACGTGAGGCT	0.23 kcal/mol
TGGGTCACGTGCTGCA	0.19 kcal/mol
GTTGCCACGTGAATTT	0.35 kcal/mol
ATATACACGTGTAGAG	0.02 kcal/mol
TTTATCACGTGGCGTA	-0.04 kcal/mol
GGGTACACGTGGCTAG	0.1 kcal/mol
TATAGCACGTGTGTGA	-0.02 kcal/mol
ATTTGCACGTGGCTGG	-0.09 kcal/mol
GGCGTCACGTGGTGTG	0.13 kcal/mol
AAATGCACGTGGCGGG	-0.18 kcal/mol
TTGCGCACGTGTGGAA	0.02 kcal/mol
GTTCCCACGTGATGGT	0.16 kcal/mol
CGTAACACGTGGGGGG	-0.15 kcal/mol
TAGGGCACGTGCGTGG	-0.16 kcal/mol
CTCGACACGTGGGTGG	-0.17 kcal/mol

Sequence	relative binding free energy
TGAGTCACGTGTCCGG	0.2 kcal/mol
GTAATCACGTGTTTTC	0.21 kcal/mol
CTTGTCACGTGGCGGA	0.05 kcal/mol
GGTGCCACGTGTGTAC	0.03 kcal/mol
AGGTTCACGTGAGGAT	0.36 kcal/mol
GGATGCACGTGTATTG	0 kcal/mol
AGAAGCACGTGTTGAT	0.03 kcal/mol
TGTGTCACGTGGAGCT	-0.05 kcal/mol
TGTTTCACGTGCGTCT	0.31 kcal/mol
TTTTTCACGTGCATGG	0.3 kcal/mol
TGGAGCACGTGAGCGT	0.21 kcal/mol
GGTTACACGTGCTGGT	0.08 kcal/mol
GAGGGCACGTGGGAGC	-0.29 kcal/mol
GAGATCACGTGGGAAT	0.26 kcal/mol
GGGCACACGTGGTTGA	0.09 kcal/mol
GTAGTCACGTGAGTTA	0.31 kcal/mol
AGTTTCACGTGGGCTC	0.16 kcal/mol
CGTGGCACGTGTGCGG	-0.11 kcal/mol
GGTGTCACGTGGTCGG	0.2 kcal/mol
AGTTCCACGTGGGCTT	0.05 kcal/mol
GCGTTCACGTGTTATT	0.24 kcal/mol
CTTATCACGTGATTGA	0.23 kcal/mol
CAGGTCACGTGGGGGG	0.01 kcal/mol

Sequence	relative binding free energy
TTCGTCACGTGGATTT	0.16 kcal/mol
AGTGTCACGTGGAGAC	0.09 kcal/mol
GGGCGCACGTGCTAGG	-0.19 kcal/mol
ATGGGCACGTGCGTTA	-0.17 kcal/mol
ATGCTCACGTGAGTTG	0.29 kcal/mol
TCAATCACGTGTTGAT	0.25 kcal/mol
GGCGACACGTGGGTGT	-0.07 kcal/mol
GTTAGCACGTGGTGTT	-0.2 kcal/mol
ATGTTCACGTGTATAG	0.19 kcal/mol
GGTCACACGTGTAGGC	0.13 kcal/mol
TTTCTCACGTGGAATT	0.35 kcal/mol
AATAGCACGTGTTTCT	0.02 kcal/mol
CTGGGCACGTGGGCAA	-0.23 kcal/mol
TTGGGCACGTGAACCG	0.21 kcal/mol
GTTTCCACGTGTTGAT	0.15 kcal/mol
CATGACACGTGTGGGT	0.06 kcal/mol
CGTATCACGTGTGTGG	0.1 kcal/mol
ATGGTCACGTGTAAGT	0.24 kcal/mol
AGTCACACGTGTTTTG	-0.12 kcal/mol
AAGTGCACGTGTAGCG	0 kcal/mol
GTTTGCACGTGGCTAA	-0.07 kcal/mol
TGGCGCACGTGTACTG	0 kcal/mol
GCGTGCACGTGGGTTA	-0.23 kcal/mol

Sequence	relative binding free energy
GGAATCACGTGAGAGG	0.34 kcal/mol
AGCTGCACGTGGTTTA	-0.11 kcal/mol
GTTAACACGTGATCGG	0.14 kcal/mol
GAAGACACGTGAGGGT	0.26 kcal/mol
TGGAGCACGTGGTAGG	-0.13 kcal/mol
GCTTACACGTGGGGTG	0.02 kcal/mol
TCTGGCACGTGAGTGG	0.1 kcal/mol
GCTGACACGTGGTGTG	-0.15 kcal/mol
AGTTCCACGTGGGAGA	0.03 kcal/mol
GAGGTCACGTGTAGAG	0.21 kcal/mol
TAGTACACGTGAGTGG	0.18 kcal/mol
ATGGCCACGTGGTGAA	-0.12 kcal/mol
TGTTTCACGTGGATCA	0.22 kcal/mol
GAGAGCACGTGGGTTT	-0.03 kcal/mol
TAAGACACGTGGAGAG	0.11 kcal/mol
AGTTGCACGTGATAAG	0.19 kcal/mol
TGTTACACGTGATTTA	0.16 kcal/mol
TATGTCACGTGTTGCG	0.05 kcal/mol
GTTTCCACGTGTGGGA	0.14 kcal/mol
AGCGTCACGTGGATGT	0.07 kcal/mol
CGTTCCACGTGAGGGG	0.25 kcal/mol
TTTTGCACGTGGCCGG	-0.08 kcal/mol
TTGTCCACGTGAAGTA	0.23 kcal/mol
